# This is one part of the list.
# B1: PX9937J-pdi-523-26-523 (Parabacteroides distasonis) (protein)
# chain: EPVSSISDANYWKSPDLFKAFNIGLHGLLRSQSSYNIFVLGEPRSDIYGDQPFGGEATQGVERFSYNTINAEFTGISNFANFYTTLNQINLMIRRTNETDLLGEAEKNYYLGQAYGLRAYIYFHLLRSWGDVIITTEPTLGSELDISHLDKAASPASEVMDLIKKDIDASEKAFGGDYSYKQGKCYWSKPATLMLKGEVYLWSGRQMGGGTGDYTVAKTALQDLQQNGNLKLQEKFTDVFSFNNKENSEMIFALHSGKEDDFMMWRDYNWRNNMVPQREYMAGYCDETGTPFLEIPGYNLQGLMRYQVKKDHYLKSFREGDTRLKGTLKAVYKKHEDGTLEYIAPIQYKFQGTTLEGSNERSWYDDYPIYRYADALLLLAEAKALLGEDPSTEINAVRERAYGSEYFNAHKNEVAYPNDKGSFYNDNPFEAGDENVMEAILKERLREFFFEGKRWYDLRRFGKDYVLKYTTAQESRLLWPINEGALTNNPALKQTPGY
# Key:
# Test in all cases: glycan array binding signal (z-score within array); higher = stronger binding
# Conditions in all cases: glycan notation: IUPAC condensed, linker removed
# [1] = target: Neu5Ac(a2-3)Gal(b1-4)GlcNAc(b1-2)[Neu5Ac(a2-3)Gal(b1-4)GlcNAc(b1-4)]Man(a1-3)[GlcNAc(b1-4)][Neu5Ac(a2-3)Gal(b1-4)GlcNAc(b1-4)Man(a1-6)]Man(b1-4)GlcNAc(b1-4)GlcNAc
# Procedure, shortened: (§1)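 Columns mapping to the same glycan were averaged after glycan names were converted to IUPAC-condensed notation. The data come from 3228 arrays in the Consortium for Functional Glycomics database, limited to those with an available protein sequence. Binding is reported as a within-array Z-score averaged across arrays of one protein sequence and across linkers.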
# [2] = target: Neu5Ac(a2-3)Gal(b1-4)GlcNAc(b1-2)[Neu5Ac(a2-3)Gal(b1-4)GlcNAc(b1-6)]Man(a1-6)[Neu5Ac(a2-3)Gal(b1-4)GlcNAc(b1-2)Man(a1-3)]Man(b1-4)GlcNAc(b1-4)GlcNAc
# Procedure, shortened: as §1
# [3] = target: Neu5Ac(a2-3)Gal(b1-4)GlcNAc(b1-2)[Neu5Ac(a2-3)Gal(b1-4)GlcNAc(b1-6)]Man(a1-6)[Neu5Ac(a2-3)Gal(b1-4)GlcNAc(b1-2)Man(a1-3)][GlcNAc(b1-4)]Man(b1-4)GlcNAc(b1-4)GlcNAc
# Procedure, shortened: as §1
# [4] = target: Neu5Ac(a2-3)Gal(b1-4)GlcNAc(b1-3)Gal
# Procedure, shortened: as §1
# [5] = target: Neu5Ac(a2-3)Gal(b1-4)GlcNAc(b1-3)Gal(b1-3)GlcNAc
# Procedure, shortened: as §1
# [6] = target: Neu5Ac(a2-3)Gal(b1-4)GlcNAc(b1-3)Gal(b1-4)GlcNAc
# Procedure, shortened: as §1
# [7] = target: Neu5Ac(a2-3)Gal(b1-4)GlcNAc(b1-3)Gal(b1-4)GlcNAc(b1-2)Man(a1-3)[Neu5Ac(a2-3)Gal(b1-4)GlcNAc(b1-3)Gal(b1-4)GlcNAc(b1-2)Man(a1-6)]Man(b1-4)GlcNAc(b1-4)GlcNAc
# Procedure, shortened: as §1
# [8] = target: Neu5Ac(a2-3)Gal(b1-4)GlcNAc(b1-3)Gal(b1-4)GlcNAc(b1-3)Gal(b1-4)GlcNAc
# Procedure, shortened: as §1
# [9] = target: Neu5Ac(a2-3)Gal(b1-4)GlcNAc(b1-3)Gal(b1-4)GlcNAc(b1-3)Gal(b1-4)GlcNAc(b1-2)Man(a1-3)[Neu5Ac(a2-3)Gal(b1-4)GlcNAc(b1-3)Gal(b1-4)GlcNAc(b1-3)Gal(b1-4)GlcNAc(b1-2)Man(a1-6)]GalNAc
# Procedure, shortened: as §1
# [10] = target: Neu5Ac(a2-3)Gal(b1-4)GlcNAc(b1-3)Gal(b1-4)GlcNAc(b1-3)GalNAc
# Procedure, shortened: as §1
# [11] = target: Neu5Ac(a2-3)Gal(b1-4)GlcNAc(b1-3)Gal(b1-4)GlcNAc(b1-3)[Neu5Ac(a2-3)Gal(b1-4)GlcNAc(b1-3)Gal(b1-4)GlcNAc(b1-6)]GalNAc
# Procedure, shortened: as §1
# [12] = target: Neu5Ac(a2-3)Gal(b1-4)GlcNAc(b1-3)Gal(b1-4)GlcNAc(b1-6)[Gal(b1-3)]GalNAc
# Procedure, shortened: as §1
# [13] = target: Neu5Ac(a2-3)Gal(b1-4)GlcNAc(b1-3)Gal(b1-4)[Fuc(a1-3)]GlcNAc
# Procedure, shortened: as §1
# [14] = target: Neu5Ac(a2-3)Gal(b1-4)GlcNAc(b1-3)GalNAc
# Procedure, shortened: as §1
# [15] = target: Neu5Ac(a2-3)Gal(b1-4)GlcNAc(b1-3)[Neu5Ac(a2-3)Gal(b1-4)GlcNAc(b1-6)]GalNAc
# Procedure, shortened: as §1
# [16] = target: Neu5Ac(a2-3)Gal(b1-4)GlcNAc(b1-6)GalNAc
# Procedure, shortened: as §1
# [17] = target: Neu5Ac(a2-3)Gal(b1-4)GlcNAc(b1-6)[Gal(b1-3)]GalNAc
# Procedure, shortened: as §1
# [18] = target: Neu5Ac(a2-3)Gal(b1-4)GlcNAc(b1-6)[Neu5Ac(a2-3)Gal(b1-3)]GalNAc
# Procedure, shortened: as §1
# [19] = target: Neu5Ac(a2-3)Gal(b1-4)GlcNAc6S
# Procedure, shortened: as §1
# [20] = target: Neu5Ac(a2-3)Gal(b1-4)[Fuc(a1-3)]GlcNAc
# Procedure, shortened: as §1
# [21] = target: Neu5Ac(a2-3)Gal(b1-4)[Fuc(a1-3)]GlcNAc(b1-2)Man
# Procedure, shortened: as §1
# [22] = target: Neu5Ac(a2-3)Gal(b1-4)[Fuc(a1-3)]GlcNAc(b1-3)Gal
# Procedure, shortened: as §1
# [23] = target: Neu5Ac(a2-3)Gal(b1-4)[Fuc(a1-3)]GlcNAc(b1-3)Gal(b1-4)GlcNAc
# Procedure, shortened: as §1
# [24] = target: Neu5Ac(a2-3)Gal(b1-4)[Fuc(a1-3)]GlcNAc(b1-3)Gal(b1-4)[Fuc(a1-3)]GlcNAc(b1-3)Gal(b1-4)[Fuc(a1-3)]GlcNAc
# Procedure, shortened: as §1
# [25] = target: Neu5Ac(a2-3)Gal(b1-4)[Fuc(a1-3)]GlcNAc(b1-3)GalNAc
# Procedure, shortened: as §1
# [26] = target: Neu5Ac(a2-3)Gal(b1-4)[Fuc(a1-3)]GlcNAc(b1-6)[Gal(b1-3)]GalNAc
# Procedure, shortened: as §1
# [27] = target: Neu5Ac(a2-3)Gal(b1-4)[Fuc(a1-3)]GlcNAc(b1-6)[Neu5Ac(a2-3)Gal(b1-3)]GalNAc
# Procedure, shortened: as §1
# [28] = target: Neu5Ac(a2-3)Gal(b1-4)[Fuc(a1-3)]GlcNAc6S
# Procedure, shortened: as §1
# [29] = target: Neu5Ac(a2-3)Gal6S(b1-4)GlcNAc
# Procedure, shortened: as §1
# [30] = target: Neu5Ac(a2-3)Gal6S(b1-4)[Fuc(a1-3)]GlcNAc
# Procedure, shortened: as §1
# [31] = target: Neu5Ac(a2-3)GalNAc
# Procedure, shortened: as §1
# [32] = target: Neu5Ac(a2-3)GalNAc(b1-4)GlcNAc
# Procedure, shortened: as §1
# [33] = target: Neu5Ac(a2-3)[GalNAc(b1-4)]Gal(b1-4)Glc
# Procedure, shortened: as §1
# [34] = target: Neu5Ac(a2-3)[GalNAc(b1-4)]Gal(b1-4)GlcNAc
# Procedure, shortened: as §1
# [35] = target: Neu5Ac(a2-3)[GalNAc(b1-4)]Gal(b1-4)GlcNAc(b1-3)GalNAc
# Procedure, shortened: as §1
# [36] = target: Neu5Ac(a2-3)[Neu5Ac(a2-6)]GalNAc
# Procedure, shortened: as §1
# [37] = target: Neu5Ac(a2-6)Gal
# Procedure, shortened: as §1
# [38] = target: Neu5Ac(a2-6)Gal(b1-3)GlcNAc(b1-3)[Gal(b1-4)GlcNAc(b1-6)]Gal(b1-4)Glc
# Procedure, shortened: as §1
# [39] = target: Neu5Ac(a2-6)Gal(b1-4)Glc
# Procedure, shortened: as §1
# [40] = target: Neu5Ac(a2-6)Gal(b1-4)GlcNAc
# Procedure, shortened: as §1
# [41] = target: Neu5Ac(a2-6)Gal(b1-4)GlcNAc(b1-2)Man
# Procedure, shortened: as §1
# [42] = target: Neu5Ac(a2-6)Gal(b1-4)GlcNAc(b1-2)Man(a1-3)Man(b1-4)GlcNAc(b1-4)GlcNAc
# Procedure, shortened: as §1
# [43] = target: Neu5Ac(a2-6)Gal(b1-4)GlcNAc(b1-2)Man(a1-3)[Gal(b1-4)GlcNAc(b1-2)Man(a1-6)]Man(b1-4)GlcNAc(b1-4)GlcNAc
# Procedure, shortened: as §1
# [44] = target: Neu5Ac(a2-6)Gal(b1-4)GlcNAc(b1-2)Man(a1-3)[GlcNAc(b1-2)Man(a1-6)]Man(b1-4)GlcNAc(b1-4)GlcNAc
# Procedure, shortened: as §1
# [45] = target: Neu5Ac(a2-6)Gal(b1-4)GlcNAc(b1-2)Man(a1-3)[GlcNAc(b1-4)][Neu5Ac(a2-6)Gal(b1-4)GlcNAc(b1-2)Man(a1-6)]Man(b1-4)GlcNAc(b1-4)GlcNAc
# Procedure, shortened: as §1
binder,measurement,setting,value
B1,glycan array binding signal (z-score),[1],-0.182
same,glycan array binding signal (z-score),[2],0.065
same,glycan array binding signal (z-score),[3],-0.236
same,glycan array binding signal (z-score),[4],-0.354
same,glycan array binding signal (z-score),[5],0.248
same,glycan array binding signal (z-score),[6],-0.723
same,glycan array binding signal (z-score),[7],0.712
same,glycan array binding signal (z-score),[8],-0.655
same,glycan array binding signal (z-score),[9],0.287
same,glycan array binding signal (z-score),[10],-0.716
same,glycan array binding signal (z-score),[11],0.981
same,glycan array binding signal (z-score),[12],0.375
same,glycan array binding signal (z-score),[13],0.766
same,glycan array binding signal (z-score),[14],-0.116
same,glycan array binding signal (z-score),[15],-0.372
same,glycan array binding signal (z-score),[16],-0.45
same,glycan array binding signal (z-score),[17],-0.1
same,glycan array binding signal (z-score),[18],-0.5
same,glycan array binding signal (z-score),[19],-0.432
same,glycan array binding signal (z-score),[20],-0.272
same,glycan array binding signal (z-score),[21],-0.094
same,glycan array binding signal (z-score),[22],-0.487
same,glycan array binding signal (z-score),[23],3.41
same,glycan array binding signal (z-score),[24],0.066
same,glycan array binding signal (z-score),[25],2.65
same,glycan array binding signal (z-score),[26],0.074
same,glycan array binding signal (z-score),[27],0.798
same,glycan array binding signal (z-score),[28],-0.224
same,glycan array binding signal (z-score),[29],-0.437
same,glycan array binding signal (z-score),[30],-0.812
same,glycan array binding signal (z-score),[31],0.204
same,glycan array binding signal (z-score),[32],-0.448
same,glycan array binding signal (z-score),[33],0.808
same,glycan array binding signal (z-score),[34],-0.335
same,glycan array binding signal (z-score),[35],0.768
same,glycan array binding signal (z-score),[36],-0.253
same,glycan array binding signal (z-score),[37],0.246
same,glycan array binding signal (z-score),[38],-0.581
same,glycan array binding signal (z-score),[39],-0.235
same,glycan array binding signal (z-score),[40],-0.794
same,glycan array binding signal (z-score),[41],-0.089
same,glycan array binding signal (z-score),[42],-0.373
same,glycan array binding signal (z-score),[43],4.14
same,glycan array binding signal (z-score),[44],0.183
same,glycan array binding signal (z-score),[45],-0.344

# From the supplement of paper PMC8728848
